Source: PubChem BioAssay (NCATS)
This list was built around the results that the source calls inconclusive (neither active nor inactive); the mix of calls is not that of the screen. Potencies of inconclusive entries are left out as doubtful fits. Activity calls are given as the source filed them. Calls follow the shape of the dose curve; as a rule, active = well fitted cell-killing curve with a large enough effect; inconclusive = small, poorly fitted or top-dose-only effect, or effect the other way; inactive = no such curve, though single readings can be large or run the other way.

assay: Viability qHTS for spleen associated tyrosine kinase inhibitor (SYKi) drug resistant MV4-11 cells (AID 1963824); conditions: SYKi-resistant MV4-11 viability, CellTiter-Glo, 72 h; series mostly up to 45 µM; also: nearly all actives have a fitted effect of over 35% in size
How it was run: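 SYK inhibitor-resistant MV4-11 AML cells, 500 per well, added to predispensed compounds and incubated 72 hr at 37 C, 5% CO2. Viability measured by CellTiter-Glo luminescence after 10 min at room temperature.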
Potency is read from the fitted curve at half-maximal effect; tags tell the direction and shape of the fitted curve.

Structure (SMILES)	Potency	viability, % of control
Cc1ccc2c(c1)C=Cc1cc(C)ccc1C2c1cn(Cc2ccc(C(=O)Nc3nn[nH]n3)o2)c(=O)[nH]c1=S	inactive	–
CC(C)CC(c1c(O)c(C=O)c(O)c(C=O)c1O)C1CCC(C)(O)C2CC(C(C)(C)O)CCC12C (stereo not given)	inactive	–
Cc1cn2cc(C(=O)N(C)CCO)cc(NC3CCOc4cccc(C)c43)c2n1 (stereo not given)	inactive	–
COc1ccc(C(O)C(C)OC2OC(CO)C(O)C(O)C2O)cc1 (stereo not given)	inactive	–
C=C1CCC[C@]2(C)CC[C@@H](C(=C)C(=O)O)[C@H](O)[C@@H]12	inactive	–
CC1=C(CC/C(C)=C/C(=O)O)[C@@]2(C)CCCC(C)(C)C2CC1=O (stereo not given in full)	inactive	–
CN(C)CCOc1ccc(/C(=C(/CCCl)c2ccccc2)c2ccccc2)cc1	active: 13.2 µM	–
Cc1[nH]nc(C(F)(F)F)c1Cc1sc2c(c1C(=O)N1C[C@](C)(O)CO1)c(=O)n(C)c(=O)n2C(C)C	inactive	–
Cc1cc(O)c(C)c(C)c1O	inactive	–
NC(=O)c1ncn([C@@H]2O[C@H](CO)[C@@H](O)[C@H]2O)c1N	inconclusive [rising, full curve, poor fit]	–
O=C(O)CCc1cc2ccoc2cc1O[C@@H]1O[C@H](CO[C@@H]2OC[C@](O)(CO)[C@H]2O)[C@@H](O)[C@H](O)[C@H]1O	inactive	–
N[C@@H]1c2cccnc2[C@H](OC(=O)N2CCC(n3c(=O)[nH]c4ncccc43)CC2)CC[C@H]1c1cccc(F)c1F	inconclusive [cytotoxic, single point]	–
CC(/C=C/C1(O)C(C)CC(O)CC1(C)C)OC1OC(CO)C(O)C(O)C1O (stereo not given)	inactive	–
Cc1cc(O[C@@H]2O[C@H](COC(=O)CC(=O)O)[C@@H](O)[C@H](O)[C@H]2O)c(C(C)C)cc1O	inconclusive [cytotoxic, partial curve, poor fit]	–
COc1cc(C[C@@]2(O)CO[C@@H](c3ccc(O[C@@H]4O[C@H](CO)[C@@H](O)[C@H](O)[C@H]4O)c(OC)c3)[C@H]2CO)ccc1O	inconclusive [cytotoxic, full curve, poor fit]	–
C[C@@H]1O[C@@H](OC[C@H]2O[C@@H](OC(CCCCc3ccc(O)cc3)CCc3ccc(O)cc3)[C@H](O)[C@@H](O)[C@@H]2O)[C@H](O)[C@H](O)[C@H]1O (stereo not given in full)	inactive	–
COc1ccccc1-c1cc(Nc2cccc(CS(N)(=O)=O)c2)ncn1	active: 8.2 µM	–
O=C(/C=C/c1ccc(O)c(O)c1)O[C@H]1[C@H](OC2CCCCC2O)O[C@H](CO)[C@@H](O)[C@@H]1O (stereo not given in full)	inactive	–
Cc1ccc(Cl)cc1N(CC(=O)Nc1c(F)cccc1F)S(C)(=O)=O	inconclusive [cytotoxic, partial curve]	–
C[C@H]1[C@H](C)CC[C@]2(C(=O)O)CC[C@]3(C(=O)O)C(=CCC4[C@@]5(C)CC[C@H](O[C@@H]6O[C@H](C)[C@@H](O)[C@H](O)[C@H]6O)C(C)(C)C5CC[C@]43C)[C@H]12 (stereo not given in full)	inconclusive [cytotoxic, partial curve, poor fit]	–

Structure (SMILES)	Potency	viability, % of control
CCN(CC)CCNc1ccc2ncn3c4ccc(O)cc4c(=O)c1c23	active: 0.291 µM	–
CC1CC2OC3(OC2C(C)(C)O)C1C1(C)CCC24CC25CCC(O[C@@H]2OC[C@@H](O)[C@H](O)[C@H]2O)C(C)(C)C5CC=C4C1(C)C3O (stereo not given in full)	inconclusive [cytotoxic, partial curve]	–
O=C(c1cc2c(cc1F)OC(c1ccc(F)cc1)(c1ccc(Cl)cc1Cl)O2)N1CCOCC1 (stereo not given)	inactive	–
CC(=O)OC[C@@]12C(=O)C[C@@H](C)[C@]3(C[C@@H](c4ccoc4)O[C@H]3OC(C)=O)[C@H]1CCC[C@]21CO1	inactive	–
C[C@@H]1O[C@@H](O[C@H]2[C@H](OC(=O)[C@]34CCC(C)(C)C[C@H]3C3=CCC5[C@@]6(C)C[C@H](O)[C@H](O[C@@H]7O[C@H](CO)[C@@H](O)[C@H](O)[C@H]7O)[C@@](C)(CO)C6[C@H](O)C[C@@]5(C)[C@]3(C)CC4)OC[C@H](O)[C@@H]2O)[C@H](O)[C@H](O)[C@H]1O[C@@H]1OC[C@@H](O)[C@H](O[C@@H]2OC[C@](O)(CO)[C@H]2O)[C@H]1O (stereo not given in full)	–	inactive: 102% [at 9.25 µM]
CC(C)(C)c1ccc(S(=O)(=O)Nc2ccc(-n3ccnc3)cc2)cc1	active: 10.3 µM	–
Cc1cccn2c(=O)c(-c3nnn[nH]3)cnc12	inactive	–
CN1C(=O)N[C@H](Cc2c[nH]c3c(Cl)cccc23)C1=O	inactive	–
CC(C)COC(=O)c1ccc(N)cc1	inactive	–
Cc1cn2cc(CC(=O)N3CCC4(CC3)CN(Cc3ccc(-n5nccn5)cc3Cl)C4)nc2s1	inconclusive [cytotoxic, partial curve]	–
O=C(O)CCCC[P+](c1ccccc1)(c1ccccc1)c1ccccc1	inactive	–
CCCOc1ccc2c(c1)CC[C@@H]1[C@@H]2CC[C@]2(C)C(OC)CC[C@@H]12 (stereo not given in full)	inactive	–
C=C1CC[C@@]2(OC1)O[C@H]1CC3C4CC=C5C[C@@H](O[C@@H]6O[C@@H](C)[C@H](O)[C@@H](O)[C@H]6O)C[C@@H](O[C@@H]6O[C@H](C)[C@H](O)[C@H](O)[C@H]6O[C@@H]6O[C@@H](C)[C@H](O)[C@@H](O)[C@H]6O)[C@]5(C)C4CC[C@]3(C)[C@H]1[C@@H]2C (stereo not given in full)	inconclusive [cytotoxic, single point]	–
COc1cc(N2CCC(O)CC2)ccc1Nc1nc(Nc2ccccc2S(=O)(=O)C(C)C)c2[nH]cnc2n1	active: 2.06 µM	–
C[C@@H]1O[C@@H](O[C@H]2[C@H](O)[C@@H](O)[C@H](O[C@H]3[C@H](O[C@H]4CC[C@@]5(C)C(=CC[C@@H]6C5CC[C@]5(C)[C@@H]7[C@H](C[C@@H]65)O[C@]5(CC[C@@](C)(CO[C@@H]6O[C@H](CO)[C@@H](O)[C@H](O)[C@H]6O)O5)[C@H]7C)C4)O[C@H](CO)[C@@H](O)[C@@H]3O)O[C@@H]2CO)[C@H](O)[C@H](O)[C@H]1O (stereo not given in full)	inconclusive [cytotoxic, partial curve, poor fit]	–
CC/C=C/C=C/C1(C)OC(CC(CO)OC)=CC1=O (stereo not given)	active: 23.1 µM	–
COc1cc(C(=O)NC2CCN(C)CC2)ccc1Nc1ncc2c(n1)N(C1CCCC1)CC(F)(F)C(=O)N2C	active: 0.0103 µM	–
N[C@@H](CCNCc1ccc(Cl)cc1)C(=O)N1CCCCC1	inactive	–
C=C[C@@]12COC(=O)C(=C)C1[C@@H](O)[C@H](C(=C)C(=O)OC)[C@@H](OC(=O)C(=C)CO)C2 (stereo not given in full)	active: 1.59 µM	–
COc1ccc(-c2c(C)c(C(=O)NN3CCCCC3)nn2-c2ccc(Cl)cc2Cl)cc1	inconclusive [cytotoxic, partial curve]	–
